Measured values from PubChem BioAssay AID624296 (National Center for Advancing Translational Sciences (NCATS), 2012).
Screen size: about 350,000 compounds; about 9,900 (2.8%) were called active. The shares of active, inactive and inconclusive entries below differ from those in the screen. Calls come from the whole dose curve; as a rule, active = well fitted activation curve with a large enough effect; inconclusive = small, poorly fitted or top-dose-only effect; inactive = no such curve, though single readings can be large or run the other way. No potency is given beside an inconclusive call; the fits are too rough.

Experiment: A quantitative high throughput screen for small molecules that induce DNA re-replication in MCF 10a normal breast cells. Note: nearly all actives have a fitted effect of over 50% in size.
Details: MCF 10A DNA re-replication, Hoechst nuclear intensity, 48 h; series mostly up to 46.1 µM
Potency is the fitted concentration of half-maximal effect; tags give direction and shape of the fitted curve.

SMILES | Potency
Cn1c(SCc2ccccc2)nnc1-c1ccc(O)cc1 | inconclusive [activator, single point]
Cc1ccc(-n2nc3c(=O)n(CCCC(=O)N4CCC(C(N)=O)CC4)nc(C)c3c2C)cc1 | inactive
O=C1C(Nc2ccccc2)=C(NS(=O)(=O)c2ccccc2)C(=O)c2ccccc21 | inactive
CC1CN=C(N(C(=S)Nc2ccccc2)c2cccc(C(F)(F)F)c2)S1 (stereo unspecified) | inconclusive [activator, partial curve]
COc1ccc(CCNC(=O)c2ccc(CS(=O)Cc3ccc(Cl)cc3)o2)cc1OC (stereo unspecified) | inactive
CCOC(=O)C1CCCN(C(=O)c2ccc(Cl)cc2)C1 (stereo unspecified) | inactive
COc1ccc(Nc2nc(-c3cccc([N+](=O)[O-])c3)nc3ccccc23)c(OC)c1 | inconclusive [activator, single point]
Cc1noc(C)c1CSc1ccccc1C(=O)N(C)CC(=O)Nc1cccc(F)c1 | inactive
O=C(Nc1ccc2ccccc2c1)c1cccnc1 | inactive
COC(=O)c1c(C)cc(C)n2c1nc1ccccc12 | inconclusive [activator, single point]
CCOC(=O)c1ccccc1NC(=O)c1ccccc1N(C)S(C)(=O)=O | inactive
CCN(Cc1ccccc1)C(=O)CSc1ncn[nH]1 | inactive
CC1CCCCC1N1CN=C(Nc2nc3ccccc3s2)NC1 (stereo unspecified) | inactive
O=[N+]([O-])c1cccc(N(CC2CO2)S(=O)(=O)c2ccccc2)c1 (stereo unspecified) | inconclusive [activator, single point]
Cc1ccc2c(CN(C)Cc3ccc(Cl)cc3)cc(=O)oc2c1 | inconclusive [activator, partial curve, poor fit]
CCN(CC)C(=O)C1CCN(Cc2ccc(Br)cc2)CC1 | inactive
CCOc1ccc(C(C)=O)cc1COc1cccnc1[N+](=O)[O-] | inconclusive [activator, single point]
Cc1ccc(C)c(N2CCN(C(=O)Cc3ccc(-n4c(=O)[nH]c5ccsc5c4=O)cc3)CC2)c1 | inconclusive [activator, single point]
CCC(NS(=O)(=O)c1ccc(OC)cc1)C(=O)NCCC1=CCCCC1 (stereo unspecified) | inconclusive [activator, single point]
Cc1ccc(C(=O)C(C)OC(=O)Cc2n[nH]c(=O)c3ccccc23)cc1 (stereo unspecified) | inconclusive [activator, single point]
O=Cc1cn(CC(=O)N2CCCCCC2)c2ccccc12 | inconclusive [activator, single point]
CCc1sc(C(=O)Nc2cccnc2)cc1Br | inactive
COc1cc2c(C#N)c(N3CCN(c4ccccc4OC)CC3)nc(N)c2c(N)n1 | active: 10.3 µM
CC(C)NC(=O)Nc1ccc2c(c1)C(=O)N([C@H](C)CO)C[C@@H](C)[C@@H](CN(C)C(=O)NC1CCCCC1)O2 | inconclusive [activator, full curve, poor fit]

SMILES | Potency
CCSc1ccc(C(=O)Nc2ccc(Br)cn2)cc1[N+](=O)[O-] | inconclusive [activator, single point]
N#CCCn1nc(-c2ccccc2)cc1-n1c(C(F)(F)F)nc2ccccc21 | inconclusive [activator, partial curve, poor fit]
COCCNC(=O)CN(C(=O)CCC(=O)Nc1ccccn1)c1cc(C)ccc1C | inconclusive [activator, partial curve, poor fit]
C[C@H]1COC(=O)[C@H](CC(=O)OC(C)(C)C)C/C=C\C[C@H](CC(=O)N(CCO)Cc2ccccc2)C(=O)N1 | inactive
COc1ccc(C2C3=C(CC(C)(C)CC3=O)Oc3ncn(CC(C)C)c(=N)c32)cc1 (stereo unspecified) | inactive
COc1ccccc1N1CCN(CC(=O)c2ccc(F)cc2)CC1 | inactive
COC(=O)C1=C(C)NC(=O)/C1=C\c1cc(C)n(-c2c(C)cccc2C)c1C | active: 5.8 µM
COc1ccc(S(=O)(=O)/N=C2/NC(=O)/C(=C\c3cc(OC)c(OC)cc3[N+](=O)[O-])S2)cc1 | inconclusive [activator, partial curve]
O=C(C[C@@H]1C/C=C/CC[C@@H](Cc2ccc(F)cc2)C(=O)O[C@H](c2ccccc2)CNC1=O)NCCO | inconclusive [activator, single point]
CCN(CC)CCOC(=O)C1(C2CCCCC2)CCCCC1 | inconclusive [activator, full curve, poor fit]
COc1ccc(Oc2cn[nH]c2-c2ccc(O)cc2O)cc1 | inconclusive [activator, single point]
Nc1nc(Cl)cc(NCCc2ccc(O)cc2)n1 | inactive
COc1cc2c(c(OC)c1OC)-c1ccc(NC(=O)c3ccccc3)c(=O)cc1[C@@H](NC(C)=O)CC2 | inactive
CCNc1nc(SCCOc2ccc(Br)cc2)nc(N(C)C)n1 | inconclusive [activator, partial curve, poor fit]
COCC(=O)Nc1nc(-c2ccc(-c3ccccc3)cc2)cs1 | inconclusive [activator, single point]
CC(C)CN1CCC(C(=O)NCC2CCCO2)CC1 (stereo unspecified) | inconclusive [activator, full curve, poor fit]
O=C(CSc1ccc2nnc(-c3cccc(F)c3)n2n1)NCc1ccco1 | inactive
CN(C(=O)c1cccc(NC(=O)Cc2ccc(NC(=O)C3CCN(C(=O)C4CCCC4)CC3)cc2)c1)C1CC1 | inactive
COc1cc(/C=C(\C(=O)O)c2ccc(S(=O)(=O)N3CCCC3)s2)ccc1OCCC(C)C | inactive
COCCNC(=O)C1CC(c2ccc(C(F)(F)F)cc2)=NO1 (stereo unspecified) | inconclusive [activator, single point]
Cn1c(=O)c(C#N)c(-c2ccccc2)n2cnnc12 | inconclusive [activator, full curve, poor fit]
CCOc1cc(CN2CCCC(C(=O)c3cccc(C(F)(F)F)c3)C2)ccc1O (stereo unspecified) | inconclusive [activator, single point]
COc1ccc(Nc2oc(-c3ccc(OC)cc3)nc2C#N)cc1 | inactive
Cc1ccc(-c2cc(C(=O)N/N=C/C=C/c3ccccc3)n[nH]2)s1 | inconclusive [activator, single point]

SMILES | Potency
Cc1cc(Cl)ccc1Oc1ncc(CN2CCN(c3ccccc3)CC2)s1 | inconclusive [activator, partial curve]
O=C1CC(c2ccccc2F)c2cc3c(cc2N1)CCC3 (stereo unspecified) | inactive
O=C(Nc1ccccc1)c1c(F)cccc1F | inactive
N#CCCN(C(=O)CCl)c1cccc(Cl)c1 | inconclusive [activator, single point]
C=CCCN(C(CC(C)C)C(=O)OC)S(=O)(=O)c1ccccc1Br (stereo unspecified) | inconclusive [activator, single point]
Cc1cccc(NC(=O)NNC(=O)c2ccccn2)c1 | inactive
COc1ccc(Cl)cc1S(=O)(=O)N1CCN(C(=O)c2n[nH]c(=O)c3ccccc23)CC1 | inconclusive [activator, single point]
COc1cc(C(=O)NCc2ccc(-c3nc4ccccc4s3)cc2)cc(OC)c1OC | inconclusive [activator, single point]
CC(C)Cn1c(SCC(=O)Nc2ncccn2)nc2ccccc21 | inconclusive [activator, single point]
COc1ccc2[nH]c(=O)c(CN(c3ccccc3OC)S(=O)(=O)c3ccccc3)cc2c1 | inconclusive [activator, single point]
COc1cccc(-c2ccc(NC(=O)C3CCCN(Cc4cnc(C)n4C)C3)cc2)c1 (stereo unspecified) | inconclusive [activator, single point]
CNC(=O)c1cc2c(=O)n3cccc(C)c3nc2n(C(C)C)c1=N | active: 3.66 µM
C=CCNC(=O)NC(=O)COC(=O)/C(C#N)=C/c1cc(C)n(CCC(C)C)c1C | inconclusive [activator, single point]
O=C1/C(=C/c2cccc(O)c2)SC(=S)N1CC1CCCO1 (stereo unspecified) | inactive
Cc1ccccc1-c1nc(CS(=O)CC(=O)NC2CCCCC2)c(C)o1 (stereo unspecified) | inactive
COc1cc(CNCCSc2nnnn2C)cc(Br)c1OCc1ccc(F)cc1 | inconclusive [activator, partial curve, poor fit]
COc1ccc(S(=O)(=O)NCC2CCCN(Cc3ccc(O)cc3)C2)cc1 (stereo unspecified) | inconclusive [activator, partial curve, poor fit]
CCOCCn1c(CN2CCN(c3cccc(Cl)c3)CC2)nc2c1c(=O)n(C)c(=O)n2C | inactive
CC(=O)Nc1ccc(S(=O)(=O)N2C(C)CCCC2C)cc1 (stereo unspecified) | inconclusive [activator, single point]
COc1ccc(CCN2C(=O)CC(N3CCN(C/C=C/c4ccccc4)CC3)C2=O)cc1OC (stereo unspecified) | inconclusive [activator, single point]
O=C(Nc1ccccc1)c1ccc(S(=O)(=O)N2CCC(C(=O)O)CC2)cc1 | inconclusive [activator, single point]
CCCCN(C)Cc1c(C)[nH]c2ccccc2c1=O | inconclusive [activator, single point]
CCOC(=O)c1c(NC(=O)c2ccc(S(=O)(=O)N3CCOCC3)cc2)sc2c1CCN(C(C)C)C2 | inconclusive [activator, single point]
